The whole screen tested about 46,000 compounds, of which about 60 (0.1%) were called active. Another 3% or so got no clear call; they are omitted. Calls follow the shape of the dose curve; as a rule, active = well fitted inhibition curve with a large enough effect; inconclusive = small, poorly fitted or top-dose-only effect; inactive = no such curve, though single readings can be large or run the other way. Some of the results follow.
Experiment: Primary qHTS assay for Inhibitors of ovarian cancer metastasis using an organotypic tumor microenvironment (TME) model. Also: nearly all actives have a fitted effect of over 65% in size.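 As to activity change, negative = inhibition: plate controls were DMSO wells for no effect and tomatine positive control wells for full effect.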
Details: SKOV3ip1-GFP adhesion/invasion on 3D omental model, fluorescence; series mostly up to 45.8 µM; activity change, negative = inhibition: at the top concentration
Procedure, shortened: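 qHTS, 4-pt dose (0.36-46 umol/L); SKOV3ip1-GFP, 1,200 cells/well, no FBS; primary omental fibroblast/mesothelial co-culture 48 h pre-grown; 2 h RT + 16 h 37 C; PBS wash, 4% PFA; GFP count 488/509 nm.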

| SMILES | activity change, negative = inhibition | outcome |
| --- | --- | --- |
| O=C(c1ccco1)c1cn(CCOc2ccc(F)cc2)c2ccccc12 | inactive: 12.8% | – |
| CS(=O)(=O)CCC(C(=O)Nc1cccc(C(F)(F)F)c1)N1Cc2ccccc2C1=O (stereo not given) | inactive: -20.7% | – |
| COCCCNC(=O)CSc1nc2cc(OC)c(OC)cc2c2nc(-c3ccccc3)nn12 | – | inactive |
| CCC(Cn1nnc2ccccc2c1=O)NC(=O)Nc1ccc(C)c(C)c1 (stereo not given) | inactive: -0.128% | – |
| CC(C)COc1ccc(C(=O)N(Cc2ccc(N(C)C)cc2)Cc2ccco2)cc1 | inactive: -9.52% | – |
| CCc1ccc(NC(=O)CCS(=O)(=O)c2ccc3c(c2)n(C)c(=O)c(=O)n3C)cc1 | – | inactive |
| Cc1ccc(-c2nnc(Nc3cccc(O)c3)c3ccccc23)cc1S(=O)(=O)N1CCN(C)CC1 | inactive: 1.05% | – |
| Cc1ccc(C(=O)Nc2cccc(-c3nc4ccccc4o3)c2)c(Cl)c1 | inactive: -1.88% | – |
| CC(C)c1ccc(NC(=O)Cn2c(=O)n(CCc3ccccc3)c(=O)c3ccccc32)cc1 | inactive: -7.08% | – |
| Cc1ccc(Nc2nnc(-c3ccc(C)c(S(=O)(=O)NCc4nc5ccccc5[nH]4)c3)c3ccccc23)cc1 | – | inactive |
| Cc1ccc(-c2nc(SCC(=O)NCc3ccco3)c3c(=O)n(C)c(=O)n(C)c3n2)cc1 | inactive: 18.1% | – |
| COc1cc(Cl)c(C)cc1Nc1ncnc2c1nc1n2CCCC1 | inactive: 14.3% | – |
| CCOC(=O)Cn1c(=O)c2c(nc3n2CCN3c2ccc(CC)cc2)n(C)c1=O | inactive: -7.35% | – |
| CCc1nc(-c2cc(S(=O)(=O)N3CCN(c4ccccc4OC)CC3)ccc2OC)no1 | inactive: -0.451% | – |
| Cc1ccc(NC(=O)CC(C)S(=O)(=O)c2ccc3c(c2)NC(=O)CO3)cc1Cl (stereo not given) | inactive: 2.02% | – |
| CCc1ccc(NC(=O)C(CC)n2c(=O)c(C(F)(F)F)nc3ccccc32)cc1 (stereo not given) | inactive: 138% | – |
| Cc1ccc(Nc2nn3c(=O)c4cc5c(cc4nc3s2)OCO5)cc1Cl | – | inactive |
| CCOC(=O)c1cc(-c2ccccc2)n(-c2cccc(C(=O)Nc3ccc(OCC)cc3)c2)c1C | – | inactive |
| COc1cccc(NS(=O)(=O)c2ccc(-c3cc(C)no3)s2)c1 | inactive: -20.5% | – |
| Cc1ccc(-c2nnc(Nc3ccc(O)cc3)c3ccccc23)cc1S(=O)(=O)N1CCOCC1 | – | inactive |
| COc1ccc(-c2cc(C(=O)Nc3c(C)nn(Cc4ccc(C)cc4)c3C)no2)cc1OC | inactive: 1.41% | – |
| COc1ccc(Cl)cc1NC(=O)CN1C(=O)COc2ccc(S(=O)(=O)NC3CCCC3)cc21 | inactive: 19.4% | – |
| CCCOc1cccc(C(=O)N(Cc2ccc(C)o2)C2CCS(=O)(=O)C2)c1 (stereo not given) | inactive: -5.22% | – |
| CC(=O)N1CCCc2cc(S(=O)(=O)N3CCC(C(=O)NCc4cccc(C)c4)CC3)ccc21 | inactive: 15.3% | – |

| SMILES | activity change, negative = inhibition | outcome |
| --- | --- | --- |
| COc1cccc(Cn2c(=O)n(Cc3ccco3)c(=O)c3oc4ccccc4c32)c1 | – | inactive |
| CCCCN(CC)CCNC(=O)Cn1cc2c(n1)-c1c(oc(C(=O)N3CCCC3)c1C)CC2 | – | inactive |
| CN(C(=O)CSc1cn(CC(=O)N2CCOCC2)c2ccccc12)c1ccccc1 | inactive: -5.65% | – |
| COC(=O)c1ccccc1NC(=O)c1c(NC(=O)c2ccco2)sc2c1CCC(C(C)(C)C)C2 (stereo not given) | inactive: 0.366% | – |
| CCCN(C(=O)c1noc2c1COc1ccc(C)cc1-2)c1ccc(Cl)c(Cl)c1 | – | inactive |
| CCOC(=O)c1cc2c(=O)n3ccccc3nc2n(CC(C)C)c1=NC(=O)c1c(-c2c(F)cccc2Cl)noc1C | – | inactive |
| COc1cc(NC(=O)CC2C(=O)N(c3cccc(C)c3)C(=O)N2Cc2ccc(F)cc2)cc(OC)c1 (stereo not given) | inactive: 7.49% | – |
| CC(=O)Nc1ccc(NC(=O)CSc2nccn2C)cc1 | – | inactive |
| COCCNc1sc(S(=O)(=O)c2ccc(C)cc2)nc1S(=O)(=O)c1ccc(C)cc1 | inactive: 26.7% | – |
| N#Cc1ccc(C(c2ccc(C#N)cc2)n2cncn2)cc1 | inactive: 27.7% | – |
| CC(C)(C)C(=O)NCCc1nc2ccccc2n1CCCCOc1ccc(Cl)cc1 | inactive: -6.29% | – |
| Cc1oc2ncn(CC(C)C)c(=O)c2c1C(=O)Nc1cc(F)ccc1F | inactive: 2.28% | – |
| CC(=O)c1ccc(NC(=O)Cn2c(=O)c3cccn3c3ccccc32)cc1 | inactive: 0.8% | – |
| Cc1cc(C)cc(S(=O)(=O)Nc2cccc(-c3ccc(N4CCOCC4)nn3)c2)c1 | inactive: 25.4% | – |
| Cc1ccc(NC(=O)Cn2c(=O)n(CCC(=O)N3CCc4ccccc4C3)c(=O)c3ccccc32)cc1 | – | inactive |
| Cc1ccc(Cn2c(C(=O)O)c(CNC3CCCCCC3)c3ccc(C)cc32)cc1 | – | inactive |
| COc1ccccc1CNC(=O)c1ccc2c(c1)N(Cc1cccc(Cl)c1)C(=O)c1ccccc1S2(=O)=O | – | inactive |
| COc1ccc(Cn2c(C(=O)O)c(CNCCc3cccs3)c3ccc(C)cc32)cc1 | inactive: 7.11% | – |
| COc1ccc(-n2nc3c(N4CCCC(C(=O)NCc5cccc(F)c5)C4)nnc(C)c3c2C)cc1 (stereo not given) | inactive: -24% | – |
| COc1ccccc1C(=O)NC1(C(F)(F)F)C(=O)Nc2c1c(=O)[nH]c(=O)n2-c1ccccc1 (stereo not given) | – | inactive |
| COc1c2occc2cc2ccc(=O)oc12 | inactive: -1.13% | – |
| O=C(Oc1ccc(F)cc1)c1nc(SCc2ccccc2F)ncc1Cl | inactive: -9.63% | – |
| Cc1oc2ncn(C)c(=O)c2c1C(=O)N1CCN(c2ccccc2)CC1 | inactive: -8.3% | – |
| COc1ccc(-c2nc(CNS(=O)(=O)c3ccccc3)cs2)cc1 | – | inactive |

| SMILES | activity change, negative = inhibition | outcome |
| --- | --- | --- |
| COc1cccc(CNC(=O)c2cc3c(s2)-c2c(C)cccc2OC3)c1 | inactive: -11.6% | – |
| CCn1c(CNC(=O)C23CC4CC(CC(C4)C2)C3)nnc1SCC(=O)Nc1ccccc1 | – | inactive |
| Cc1ccc(C)c(OCCn2cc(C(=O)c3ccco3)c3ccccc32)c1 | inactive: 6.06% | – |
| CC1CCCN(CCCNC(=O)c2cn(C)c3ccc(S(=O)(=O)N(C)C4CCCCC4)cc3c2=O)C1 (stereo not given) | inactive: 6.07% | – |
| Cc1ccc2nc(N3CCN(C(=O)C4CC4)CC3)sc2c1 | inactive: -0.0512% | – |
| COc1ccc2c(OCc3nnc4ccc(-c5ccccc5)nn34)ccnc2c1 | inactive: -10.8% | – |
| Cc1ccc2c(c1)-c1nc(-c3ccc4c(c3)NC(=O)CO4)cc(-c3ccc(Cl)cc3)c1CO2 | inactive: 9.04% | – |
| Cn1c(=O)c2c([nH]c(=O)n2Cc2ccc(Cl)cc2Cl)n(C)c1=O | inactive: 3.56% | – |
| Cc1ccc(NC(=O)Cn2cc3c(n2)CCCCC3)cc1 | inactive: -2.62% | – |
| CCN(c1ccccc1)c1ncnc2c1cnn2-c1ccc(C)cc1C | – | inactive |
| COC(=O)c1c(Oc2ccc(C(C)=O)cc2)nnc(-c2ccccc2)c1-c1ccccc1 | inactive: 0.592% | – |
| COc1ccccc1CNC(=O)CN1C(=O)CSc2ccc(S(=O)(=O)N3CCCCC3)cc21 | inactive: -0.597% | – |
| CCCc1c(C)c2ccc(O)c(CN3CCN(c4ccc(F)cc4)CC3)c2oc1=O | inactive: -19.5% | – |
| CC1=C(C(=O)N2CCN(c3cccc(C(F)(F)F)c3)CC2)C2(CCCCC2)OC1=O | inactive: -20.3% | – |
| CCOC(=O)c1ccccc1NC(=O)c1cc2c(=O)oc3ccc(C)cc3c2s1 | – | inactive |
| CCOC(=O)c1noc2nc(C)n(CC(=O)Nc3ccccc3F)c(=O)c12 | inactive: -1.19% | – |
| CCc1ccc(C2CC(=O)Nc3cc4c(cc32)OCO4)cc1 (stereo not given) | – | inactive |
| Cc1ccc(C)c(Nc2nc3c(S(=O)(=O)c4ccc(C(C)C)cc4)nnn3c3ccsc23)c1 | inactive: 6.31% | – |
| Cc1cccc(N2CCN(C(=O)c3c(C)oc4ncnc(N5CCCCC5)c34)CC2)c1C | – | inactive |
| O=C(Nc1ccc(Cl)cc1Cl)c1cc(S(=O)(=O)N2CCc3ccccc32)ccc1F | inactive: 13.4% | – |
| Cc1ccc(S(=O)(=O)Nc2cccc(-c3cn4cccc(C)c4n3)c2)cc1 | inactive: 1.51% | – |
| COc1ccc(OC)c2sc(N3CCN(C(=O)C4CC4)CC3)nc12 | inactive: 1.5% | – |
| CCc1ccccc1N1C(=O)N(Cc2ccccc2C)c2ccccc2S1(=O)=O | – | inactive |
| COc1ccc(S(=O)(=O)n2ccnc2)cc1C(C)(C)C | inactive: 20.8% | – |

| SMILES | activity change, negative = inhibition | outcome |
| --- | --- | --- |
| Cc1ccccc1CCNC(=O)c1ccc2c(c1)c(C)c(C)n2Cc1ccccc1 | inactive: -6.09% | – |
| CCOc1ccc(CNC(=O)CSc2nnc(C)c3c(C)n(-c4ccccc4)nc23)cc1 | inactive: -12.7% | – |
| CC(C)CN(CCCNC(=O)CN1C(=O)CSc2ccc(S(=O)(=O)N3CCOCC3)cc21)CC(C)C | inactive: -6.88% | – |
| COc1ccccc1NC(=O)c1cnc(SCC(=O)N2CCCc3ccccc32)n(C)c1=O | – | inactive |
| CCOc1ccc(NC(=O)CC2C(=O)OCCN2CC)cc1 (stereo not given) | inactive: 1.32% | – |
| COc1ccc(OC)c(-n2cnc3cc(C(=O)NC4CCCCCC4)ccc32)c1 | inactive: 2.03% | – |
| CS(=O)(=O)N(CC(=O)NCCc1ccccc1)c1cc(C(F)(F)F)ccc1Cl | inactive: 4.9% | – |
| Cc1cccc(-c2nnn3c2nc(NCCc2ccc(S(N)(=O)=O)cc2)c2cc(Cl)ccc23)c1 | inactive: 4.74% | – |
| CSc1ccc(-c2nc3ccc(C)cn3c2Nc2ccccc2C)cc1 | – | inactive |
| COc1ccc(-c2cc(C)nc3c(-c4ccc(OC)c(OC)c4)c(C)nn23)cc1 | inactive: -14.7% | – |
| COc1ccc(N2CCN(C(=O)c3cc4ccc5cccnc5c4[nH]3)CC2)cc1 | inactive: -3.55% | – |
| O=C(NCC12CC3CC(CC(C3)C1)C2)c1cc2nc(-c3ccccc3)cc(C(F)(F)F)n2n1 | – | inactive |
| Cc1cccc(Oc2nc3c(c(=O)n(C)c(=O)n3C)n2C)c1 | inactive: -10.5% | – |
| CCCCCn1c(=O)[nH]c2cc(C(=O)N3CCN(c4cccc(C)c4)C(C)C3)ccc2c1=O (stereo not given) | – | inactive |
| COc1ccc(OC)c(CCNc2ncnc3onc(-c4ccc(F)cc4)c23)c1 | inactive: 0.761% | – |
| CC(NC(=O)c1ccccc1NC(=O)c1nsc2ccccc12)c1ccccc1 (stereo not given) | inactive: 3.37% | – |
| CNC(=O)c1cc(Nc2nnc(-c3ccc(O)cc3)c3ccccc23)ccc1OC | inactive: 2.45% | – |
| Fc1cc(Br)ccc1Nc1c2c(nc3nc(-c4cccs4)nn13)CCCC2 | inactive: -26.9% | – |
| O=C1CCCc2cc(S(=O)(=O)NCC3CCC(C(=O)Nc4ccccc4F)CC3)ccc2N1 (stereo not given) | inactive: 18% | – |
| CCCCOc1ccc(C(=O)N2CCN(CCc3ccccn3)CC2)cc1 | inactive: 1.84% | – |
| CC(=O)c1ccc(NC(=O)C2=CC(c3ccc4c(c3)OCO4)=NS(=O)(=O)N2C)cc1 | inactive: 18.2% | – |
| COC(=O)c1ccc(OC)c(Cn2c(=O)n(Cc3ccccc3)c(=O)c3c2c2cc(OC)ccc2n3C)c1 | inactive: 0.627% | – |
| Cc1ccc(C(=O)Nc2ccc3oc(-c4ccc(C(C)(C)C)cc4)nc3c2)cc1 | inactive: 0.0841% | – |

Source: PubChem BioAssay AID1963576 (National Center for Advancing Translational Sciences (NCATS), 2024)
